Results reported in PubChem BioAssay AID1508624 (National Center for Advancing Translational Sciences (NCATS), 2021).
Hit rate of the full screen: of about 48,000 compounds, about 120 (0.25%) were called active. Roughly 4% stayed inconclusive and do not appear here. The call rests on the fitted dose curve; in most records, active means well fitted activation curve with a large enough effect; inconclusive means small, poorly fitted or top-dose-only effect, or another doubt; inactive means no such curve, though single readings can be large or run the other way. The list shows a part of the results.

Assay: Primary qHTS for Identification of Small Molecule Activators of Huntingtin-Antisense Promoter Activity; further: nearly all actives have a fitted effect of over 55% in size
Conditions: HEK293 HTT-AS promoter firefly luciferase reporter, 24 h; series mostly up to 57.5 µM; activity change, positive = activation: at the top concentration
Summary of the method: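 Firefly luciferase readout (Dual-Glo, 10 min RT) after 24 h, 37 °C compound exposure (final up to 57.5 uM) of HEK293 reporter cells cultured 24 h beforehand; PTC124 at 50 uM final as control inhibitor; activity scaled vehicle 0%, zero RLU -100%.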

Activity change, positive = activation, inactive:
CCCCN(C)C(=O)CCC(=O)NNc1nc2ccccc2c2nc(C)nn12 -12.4%
COc1cc2c(cc1OC)C(COc1cc(C)cc(C)c1)N(C(=O)C(C)(C)C)CC2 (centres undefined) -20%
Cc1oc(-c2cccc(Cl)c2)nc1Cn1c(SCc2ccc(F)cc2)nc2cccnc21 -23%
Cc1cccc(N2CCn3c2nc2c3c(=O)n(CCCc3ccccc3)c(=O)n2C)c1 -14.4%
COc1cc2c(C(=O)N(C)c3cccc(C(F)(F)F)c3)cn(CC(C)C)c(=O)c2cc1OC -18.4%
Cc1ccc(C(c2sc3nc(-c4ccco4)nn3c2O)N2CCN(c3ccc(F)cc3)CC2)cc1 (centres undefined) -7.87%
CCC(C)OC(=O)/C(C#N)=C/c1ccc(-c2ccc(Br)cc2)o1 (centres undefined) 6.88%
O=C(CCCCCn1c(=O)c2sccc2n(CC(=O)Nc2ccccc2F)c1=O)NCc1ccc2c(c1)OCO2 -19.4%
Cc1ccc(C2CC(=O)Nc3c2c(C)nn3-c2nc(C)cc(C)n2)c(C)c1 (centres undefined) -2.33%
Cc1cc2n(n1)CCCN2C(=O)Nc1ccccc1C(F)(F)F -1.29%
Cc1ccccc1C(=O)N1CCC(c2nc(-c3ccc(S(=O)(=O)N4CCCC4)cc3)no2)CC1 -14.6%
Cn1c(=O)oc2cc(S(=O)(=O)CCC(=O)NCc3ccc(Cl)cc3)ccc21 -1.94%
Cc1ccsc1CN(Cc1ccco1)c1cnc(S(C)(=O)=O)nc1C(=O)Nc1ccc(Cl)cc1 -23.5%
CC1CCN(C(=O)CN2CC(C)Sc3ccccc32)CC1 (centres undefined) -5.31%
Cc1ccc(NC(=O)N2CC=C(c3c[nH]c4ccccc34)CC2)cc1Cl -17.5%
COc1ccc(-c2cn3nc(SCC(=O)Nc4cccc(C)c4C)ccc3n2)cc1 -5.3%
CCOCCn1ccc2c(OCC(=O)Nc3cc(C)cc(C)c3)cccc2c1=O -8.71%
Cc1cccc(C(=O)Nc2ccc(OCc3cc(=O)n4ccc(C)cc4n3)cc2)c1 -12.9%
Cc1ccc(NS(=O)(=O)c2ccc(-n3cccn3)cc2)c(Br)c1 -36.4%
COc1ccc(Nc2nc3ccccc3n3c(N)nnc23)cc1 21.2%
O=C(Nc1ccc(F)c(F)c1)c1cc(S(=O)(=O)NC2CCCC2)ccc1F -30.7%
Cc1cccc(N2CCN(CCCNc3ncnc4onc(-c5ccc(F)cc5)c34)CC2C)c1 (centres undefined) -41.8%
CCCCc1ccc(NS(=O)(=O)c2ccc(C)c(C(=O)N3CCN(c4cccc(C)c4C)CC3)c2)cc1 -19.9%
O=C(CCNS(=O)(=O)c1ccc2c(c1)CCN2C(=O)C1CC1)Nc1ccc(OC(F)(F)F)cc1 -45.1%
COc1cccc(C(=O)Nc2ccc3nc(SCCOc4ccccc4)sc3c2)c1 -27.4%
CCc1ccc2oc(-c3cc(NC(=O)c4cccs4)ccc3Cl)nc2c1 -7.75%
CCC(C)NC(=O)Cn1ccc2cc(S(=O)(=O)N3CCCCCC3)ccc21 (centres undefined) -32.1%
CCC1=C(C)CN(C(=O)NCCc2ccc(S(=O)(=O)NC(=O)NC3CCC(C)CC3)cc2)C1=O (centres undefined)
O=C(Cc1ccc(-c2ccccc2)cc1)NCCS(=O)(=O)N1CCN(c2ccccc2F)CC1 -19.7%
COc1cccc(NC(=O)C2CCCN(c3ncnc4onc(C)c34)C2)c1 (centres undefined) -20.7%
CNC(=O)c1cc(COc2nnc(Nc3ccc(Cl)cc3)c3ccoc23)ccn1 -2.31%
O=C(Nc1ccccc1C(=O)N1CCCCC1)c1nsc2ccccc12 -7.8%
CCCCCOc1ccc(/C=C/C(=O)Nc2sc3c(c2C(=O)OCC)CCC3)cc1OC -1.75%
CCCCOc1cccc(C2c3c(-c4cc(C)ccc4O)n[nH]c3C(=O)N2CCOC)c1 (centres undefined) -25.8%
COc1ccc(NC(=O)CNC(=O)Cn2ccc3ccccc3c2=O)cc1OC -11.8%
CCc1ccc(NC(=O)c2cc(=O)c3ccc(C)c(C)c3o2)cc1 -40.8%
COC(=O)CN1C(C(=O)c2ccccc2)=C(OC(=O)c2ccccc2)c2ccccc2S1(=O)=O -16.8%
CCCN1C(C(=O)c2ccccc2)=C(OC(=O)COc2ccc(C)cc2)c2ccccc2S1(=O)=O -33.8%
Cc1ccc(NC(=O)CCCn2nc(C)c3c(C)n(-c4ccccc4)nc3c2=O)c(Cl)c1 0.553%
COc1ccc(S(=O)(=O)N(CC(=O)Nc2ccc(Br)cc2)Cc2ccccc2)cc1 -21.2%
Cc1ccc(NC(=O)C2CCCN(S(=O)(=O)c3cccs3)C2)c(C)c1 (centres undefined) -20.4%
CCOC(=O)c1cc(NC(=O)c2ccc(F)cc2)c(=O)n2c1oc1ccc(Cl)cc12 1.89%
CCCSCCCNC(=O)Cn1c(-c2cccs2)cc2ccccc21 -35%
Cc1cc(O)c(CN2CCN(c3ccccc3)CC2)c2oc(=O)cc(C)c12 -12.4%
O=C(Nc1c2c(nn1-c1ccc(Cl)cc1)CS(=O)(=O)C2)c1ccc(Br)cc1 -55.1%
Cc1nc(-c2ccc(S(=O)(=O)NCc3ccccc3Cl)cc2)co1 -21.4%
CCCCN(CCCC)C(=O)c1c[nH]c2ccc(S(=O)(=O)Nc3cccc(Cl)c3C)cc2c1=O -31.7%
CCCn1c2ccccc2c2cnn(CC(=O)N3CCCC(C(=O)OCC)C3)c(=O)c21 (centres undefined) -23.5%
CCN1CCN(C(=O)Cn2ncc3c4ccccc4n(Cc4c(C)cc(C)cc4C)c3c2=O)CC1 -20.9%
Cc1ccc(CCNC(=O)c2ccc3c(c2)N(Cc2cccc(F)c2)C(=O)c2ccccc2S3)cc1 -15.6%
Cc1ccc2c(=O)cc(C(=O)Nc3sc4c(c3C(=O)NCc3cccnc3)CCCC4)oc2c1 4.25% [at 11.5 µM, percent change from vehicle, -100% = no light]
CCOC(=O)c1ccc(NC(=O)C2=C(C)C(=O)OC23CCN(C(C)C)CC3)cc1 -18.8%
Cc1ccc(CN(C(=O)COc2ccc(F)cc2)C2CCS(=O)(=O)C2)o1 (centres undefined) -6.98%
CCn1cc(S(=O)(=O)c2ccccc2)c(=O)c2cc(F)c(F)cc21 1.48%
Cc1ccc(-n2ncc(C(=O)NCCN3CCC(Cc4ccccc4)CC3)c2C2CCN(C(=O)OC(C)(C)C)CC2)cc1 -55.8%
O=C(NCC(c1cccnc1)N1CCc2ccccc21)c1ccc(Cl)cc1 (centres undefined) -42.9%
CC(C)CCNC(=O)c1ccc2nc(Cc3ccccc3)oc2c1 2.3%
Cc1cc(NS(=O)(=O)c2ccc(NC(=O)COc3cc(C)c(Br)cc3C(C)C)cc2)no1 -25.1%
CCOc1ccc(N(CC)C(=O)Cn2cnc3sc(C)c(S(=O)(=O)N4CCN(c5ncccn5)CC4)c3c2=O)cc1 -8.86%
